# Results reported in the supplement of paper PMC3334620.
# In all, about 33,000 sequences were measured (“E-score (-0.5 to 0.5)”: median about -0.012, highest 2% from about 0.29 on). The list shows a part of the results.
# Target: T1, Ybr033w (UniProt P38073)
# T1 sequence: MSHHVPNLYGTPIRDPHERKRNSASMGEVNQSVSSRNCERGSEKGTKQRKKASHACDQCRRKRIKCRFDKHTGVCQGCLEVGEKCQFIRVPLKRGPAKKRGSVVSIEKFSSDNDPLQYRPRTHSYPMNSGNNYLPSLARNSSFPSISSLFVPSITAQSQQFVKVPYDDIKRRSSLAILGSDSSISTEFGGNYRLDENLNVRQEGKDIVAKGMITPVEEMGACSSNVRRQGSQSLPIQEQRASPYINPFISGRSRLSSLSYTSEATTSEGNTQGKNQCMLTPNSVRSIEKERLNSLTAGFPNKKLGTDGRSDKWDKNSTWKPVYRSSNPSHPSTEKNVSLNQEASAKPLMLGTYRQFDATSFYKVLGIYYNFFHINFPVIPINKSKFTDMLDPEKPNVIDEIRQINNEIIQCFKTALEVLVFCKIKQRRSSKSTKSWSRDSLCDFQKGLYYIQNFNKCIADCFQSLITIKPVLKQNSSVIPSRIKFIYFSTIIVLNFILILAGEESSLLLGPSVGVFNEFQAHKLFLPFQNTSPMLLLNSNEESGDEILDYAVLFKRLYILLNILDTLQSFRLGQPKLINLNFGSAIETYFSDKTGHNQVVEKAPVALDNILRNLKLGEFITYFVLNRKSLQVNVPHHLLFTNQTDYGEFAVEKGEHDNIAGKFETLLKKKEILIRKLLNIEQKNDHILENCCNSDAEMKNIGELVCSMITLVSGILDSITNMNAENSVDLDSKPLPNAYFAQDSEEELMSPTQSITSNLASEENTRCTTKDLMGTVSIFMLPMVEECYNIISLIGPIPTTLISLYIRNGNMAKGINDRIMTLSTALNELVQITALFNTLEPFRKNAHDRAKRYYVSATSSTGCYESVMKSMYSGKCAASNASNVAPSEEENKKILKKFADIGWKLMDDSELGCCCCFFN
# Assay: PBM E-score (8-mer binding enrichment) (E-score (-0.5 to 0.5)); higher = stronger / more preferred TF binding; most listed sequences are background and not binding sites
# Details: protein concentration: 200 nM; construct: GST-full length
# In short: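 GST-tagged yeast TFs (full-length or DNA-binding domain) were made by PURExpress in vitro transcription/translation and applied at about 100-200 nM to universal all-10-mer Agilent arrays. The arrays were made double-stranded by primer extension, on fresh or once-stripped slides. Bound protein was detected with fluorescent anti-GST, and scans were normalised with masliner. Each ungapped eight-base word, pooled with its reverse complement, received an E-score (modified Wilcoxon-Mann-Whitney statistic) from the Universal PBM Analysis Suite.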
row,Sequence,PBM E-score
1,GAACAGCC,-0.0732
2,CAGGTAGG,-0.052
3,AGAGTCAC,-0.0357
4,ACTAGTAA,0.213
5,CACTTGGA,0.159
6,AGGCCCTA,-0.0825
7,AGATACTA,0.103
8,ATCCAGGA,0.119
9,CACTACGC,-0.246
10,GAGCAAAA,0.0833
11,CTCCCTCC,-0.231
12,CAACTGCG,-0.101
13,TGACTACA,0.0719
14,AACCATAC,0.0359
15,CTGCCATA,-0.0461
16,AGCGCTAC,-0.153
17,AAAGAGGG,-0.0041
18,TGGATCCA,-0.0233
19,GGCGAAAC,-0.00592
20,GTAGATGA,0.113
21,AGTGTTAT,0.165
22,AATCTTAG,0.119

row,Sequence,PBM E-score
1,ATTTGCGC,0.0226
2,GATCCCAC,0.0929
3,ATGATCCA,0.162
4,ACTACGTA,0.0636
5,CCCATCTA,-0.0571
6,ACACCATA,0.145
7,GCGTTTGA,-0.0016
8,AATATTGT,0.298
9,AGCATATC,0.0997
10,TAACCATA,0.104
11,AATCTAAC,0.251
12,AATTCGCC,0.0309
13,GCGGGCAA,-0.112
14,ATAGCTGC,0.223
15,CCCGAGAG,-0.217
16,CCCAACTA,0.0302
17,CTACGTGA,-0.0199
18,CTAAGTCA,0.0426
19,GGTTGGCA,-0.0669
20,CATTCGTC,0.00034
21,AAGCCTGA,-0.0431
22,GTACTAGA,0.168

row,Sequence,PBM E-score
1,ACTTACAG,0.0407
2,CGCGGTCA,-0.167
3,ACATCGGG,-0.0939
4,GAACCTAC,0.0534
5,ACTTAGTA,0.137
6,GCCGCAAC,-0.0949
7,ATACAGAG,-0.0515
8,ATCAACGC,-0.00761
9,GGTGCCCA,-0.316
10,AGTACGTG,-0.00447
11,AAAATCCC,0.17
12,GCTGACAA,-0.0525
13,CTTGCAAC,0.111
14,GATAGCGA,-0.0657
15,CCTGTGCC,-0.18
16,CTGGTCCA,-0.17
17,ATACCGCA,-0.0369
18,CTCAGGCA,-0.0691
19,AGAAGAAG,-0.0313
20,CCAGCTAG,-0.177
21,ATACAGGG,0.0175
22,CTCTACTA,0.0534

row,Sequence,PBM E-score
1,CAGTCTCG,-0.174
2,ATACGCGA,0.0373
3,CCGATGCA,-0.0724
4,AATACGAT,0.174
5,GTTGGCGA,-0.0105
6,CCGGATCA,0.345
7,ACACTTAT,0.0459
8,CACTTCAG,-0.0545
9,AATCCTCT,-0.0219
10,ACCGTACT,0.0718
11,ACCGTTGA,-0.0185
12,CTGACCCC,-0.349
13,CCACTCCC,-0.103
14,ATCTATAC,0.16
15,AACACAGC,0.17
16,CGGCTTGC,0.0511
17,GGTTGGGA,-0.154
18,CATATCGA,0.0399
19,CAGGCGGC,-0.29
20,CTCAACAC,0.111
